Values joined by “and” are separate entries in the source; they are usually repeats but may differ in a detail not shown here. Equal values may be shown once. This continues a long series; more values of the same kind are listed elsewhere.
Key:
Experiment in all cases: TEVC recording in X. laevis oocytes, GluN2B mutant screening
Assay type in all cases: cell-based
[1] = target: GluN1a wt/ GluN2B Q110A (Rattus norvegicus, UniProt P35439+Q00960, Q110A); conditions: GluN1-1a/Q110A, individual oocytes
Chain of GluN1a wt/ GluN2B Q110A (Q00960 27-1482 Q110A, other chains not shown): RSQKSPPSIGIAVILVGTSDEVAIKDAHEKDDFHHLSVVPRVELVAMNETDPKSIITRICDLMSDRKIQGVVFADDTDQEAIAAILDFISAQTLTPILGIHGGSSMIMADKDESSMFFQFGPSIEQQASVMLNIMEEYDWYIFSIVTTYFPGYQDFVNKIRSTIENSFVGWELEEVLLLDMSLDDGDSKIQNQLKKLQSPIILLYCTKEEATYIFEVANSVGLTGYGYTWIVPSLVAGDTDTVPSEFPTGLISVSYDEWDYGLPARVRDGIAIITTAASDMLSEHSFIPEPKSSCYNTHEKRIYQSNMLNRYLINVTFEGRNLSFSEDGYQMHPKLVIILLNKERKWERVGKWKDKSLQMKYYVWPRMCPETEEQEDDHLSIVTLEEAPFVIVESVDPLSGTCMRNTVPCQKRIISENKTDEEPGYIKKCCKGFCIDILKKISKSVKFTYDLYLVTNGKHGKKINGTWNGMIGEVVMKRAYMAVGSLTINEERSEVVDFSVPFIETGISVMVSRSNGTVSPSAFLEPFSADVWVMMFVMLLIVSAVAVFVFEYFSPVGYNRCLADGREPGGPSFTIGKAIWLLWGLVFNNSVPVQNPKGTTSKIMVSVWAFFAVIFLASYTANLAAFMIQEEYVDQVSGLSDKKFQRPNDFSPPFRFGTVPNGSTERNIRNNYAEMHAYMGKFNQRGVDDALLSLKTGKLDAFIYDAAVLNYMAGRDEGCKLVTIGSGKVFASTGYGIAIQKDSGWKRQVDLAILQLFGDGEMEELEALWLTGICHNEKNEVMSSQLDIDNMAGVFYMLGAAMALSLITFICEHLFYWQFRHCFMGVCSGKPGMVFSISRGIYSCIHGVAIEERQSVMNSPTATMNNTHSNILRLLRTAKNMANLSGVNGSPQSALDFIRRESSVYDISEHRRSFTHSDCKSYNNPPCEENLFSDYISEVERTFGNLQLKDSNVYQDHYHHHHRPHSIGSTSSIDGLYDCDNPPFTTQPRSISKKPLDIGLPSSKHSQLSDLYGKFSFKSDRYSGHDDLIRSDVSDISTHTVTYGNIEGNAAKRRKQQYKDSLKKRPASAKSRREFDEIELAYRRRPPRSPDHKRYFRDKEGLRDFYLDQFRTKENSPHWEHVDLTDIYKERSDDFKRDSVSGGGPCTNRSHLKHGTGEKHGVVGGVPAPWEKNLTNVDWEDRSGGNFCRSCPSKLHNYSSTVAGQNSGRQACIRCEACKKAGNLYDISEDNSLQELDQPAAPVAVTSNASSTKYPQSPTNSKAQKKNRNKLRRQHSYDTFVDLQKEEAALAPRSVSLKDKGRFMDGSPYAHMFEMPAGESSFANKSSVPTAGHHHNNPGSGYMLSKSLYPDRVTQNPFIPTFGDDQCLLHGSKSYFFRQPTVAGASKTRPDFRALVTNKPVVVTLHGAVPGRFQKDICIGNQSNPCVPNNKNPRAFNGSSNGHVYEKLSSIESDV

[2] = target: GluN1a wt/ GluN2B F114A (Rattus norvegicus, UniProt P35439+Q00960, F114A); conditions: GluN1-1a/F114A, individual oocytes
Chain of GluN1a wt/ GluN2B F114A (Q00960 27-1482 F114A, other chains not shown): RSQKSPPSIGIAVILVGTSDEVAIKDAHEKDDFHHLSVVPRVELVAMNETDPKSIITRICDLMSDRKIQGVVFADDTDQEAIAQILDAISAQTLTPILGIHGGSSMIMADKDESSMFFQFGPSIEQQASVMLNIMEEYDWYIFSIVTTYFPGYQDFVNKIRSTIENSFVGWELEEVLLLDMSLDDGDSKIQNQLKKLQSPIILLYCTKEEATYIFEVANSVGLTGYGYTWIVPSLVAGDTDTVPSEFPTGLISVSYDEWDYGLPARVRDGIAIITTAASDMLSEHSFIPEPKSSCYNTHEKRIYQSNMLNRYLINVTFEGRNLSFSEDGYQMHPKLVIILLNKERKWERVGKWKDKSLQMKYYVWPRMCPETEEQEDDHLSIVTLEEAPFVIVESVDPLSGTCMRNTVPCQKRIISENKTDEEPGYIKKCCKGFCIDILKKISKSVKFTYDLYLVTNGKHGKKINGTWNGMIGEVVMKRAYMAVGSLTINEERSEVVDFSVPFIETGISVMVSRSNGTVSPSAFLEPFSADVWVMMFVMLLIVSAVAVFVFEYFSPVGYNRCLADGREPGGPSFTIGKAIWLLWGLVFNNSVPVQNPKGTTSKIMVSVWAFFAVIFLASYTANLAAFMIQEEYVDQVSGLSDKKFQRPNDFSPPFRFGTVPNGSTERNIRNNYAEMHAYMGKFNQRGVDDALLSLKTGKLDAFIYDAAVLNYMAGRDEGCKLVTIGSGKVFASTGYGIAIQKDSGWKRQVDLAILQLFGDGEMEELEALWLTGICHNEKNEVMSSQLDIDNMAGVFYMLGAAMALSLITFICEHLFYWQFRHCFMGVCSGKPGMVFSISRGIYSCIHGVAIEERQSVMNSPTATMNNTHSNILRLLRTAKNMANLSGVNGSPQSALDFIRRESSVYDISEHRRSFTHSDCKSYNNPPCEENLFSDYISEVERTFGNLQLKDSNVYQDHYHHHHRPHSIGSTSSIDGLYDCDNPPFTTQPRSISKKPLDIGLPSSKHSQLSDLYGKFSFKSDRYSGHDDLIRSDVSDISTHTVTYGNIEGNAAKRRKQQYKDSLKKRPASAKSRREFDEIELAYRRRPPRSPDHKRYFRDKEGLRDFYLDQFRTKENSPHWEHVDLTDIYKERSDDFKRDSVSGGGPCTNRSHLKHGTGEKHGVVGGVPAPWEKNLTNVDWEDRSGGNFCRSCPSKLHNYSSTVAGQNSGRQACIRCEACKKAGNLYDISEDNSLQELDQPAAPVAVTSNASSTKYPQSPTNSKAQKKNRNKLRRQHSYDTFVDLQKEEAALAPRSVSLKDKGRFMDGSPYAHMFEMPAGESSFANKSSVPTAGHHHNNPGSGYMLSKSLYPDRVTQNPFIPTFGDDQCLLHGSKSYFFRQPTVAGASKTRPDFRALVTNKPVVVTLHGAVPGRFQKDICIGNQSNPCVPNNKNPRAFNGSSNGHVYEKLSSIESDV

[3] = target: GluN1a wt/ GluN2B F176A (Rattus norvegicus, UniProt P35439+Q00960, F176A); conditions: GluN1-1a/F176A, individual oocytes
Chain of GluN1a wt/ GluN2B F176A (Q00960 27-1482 F176A, other chains not shown): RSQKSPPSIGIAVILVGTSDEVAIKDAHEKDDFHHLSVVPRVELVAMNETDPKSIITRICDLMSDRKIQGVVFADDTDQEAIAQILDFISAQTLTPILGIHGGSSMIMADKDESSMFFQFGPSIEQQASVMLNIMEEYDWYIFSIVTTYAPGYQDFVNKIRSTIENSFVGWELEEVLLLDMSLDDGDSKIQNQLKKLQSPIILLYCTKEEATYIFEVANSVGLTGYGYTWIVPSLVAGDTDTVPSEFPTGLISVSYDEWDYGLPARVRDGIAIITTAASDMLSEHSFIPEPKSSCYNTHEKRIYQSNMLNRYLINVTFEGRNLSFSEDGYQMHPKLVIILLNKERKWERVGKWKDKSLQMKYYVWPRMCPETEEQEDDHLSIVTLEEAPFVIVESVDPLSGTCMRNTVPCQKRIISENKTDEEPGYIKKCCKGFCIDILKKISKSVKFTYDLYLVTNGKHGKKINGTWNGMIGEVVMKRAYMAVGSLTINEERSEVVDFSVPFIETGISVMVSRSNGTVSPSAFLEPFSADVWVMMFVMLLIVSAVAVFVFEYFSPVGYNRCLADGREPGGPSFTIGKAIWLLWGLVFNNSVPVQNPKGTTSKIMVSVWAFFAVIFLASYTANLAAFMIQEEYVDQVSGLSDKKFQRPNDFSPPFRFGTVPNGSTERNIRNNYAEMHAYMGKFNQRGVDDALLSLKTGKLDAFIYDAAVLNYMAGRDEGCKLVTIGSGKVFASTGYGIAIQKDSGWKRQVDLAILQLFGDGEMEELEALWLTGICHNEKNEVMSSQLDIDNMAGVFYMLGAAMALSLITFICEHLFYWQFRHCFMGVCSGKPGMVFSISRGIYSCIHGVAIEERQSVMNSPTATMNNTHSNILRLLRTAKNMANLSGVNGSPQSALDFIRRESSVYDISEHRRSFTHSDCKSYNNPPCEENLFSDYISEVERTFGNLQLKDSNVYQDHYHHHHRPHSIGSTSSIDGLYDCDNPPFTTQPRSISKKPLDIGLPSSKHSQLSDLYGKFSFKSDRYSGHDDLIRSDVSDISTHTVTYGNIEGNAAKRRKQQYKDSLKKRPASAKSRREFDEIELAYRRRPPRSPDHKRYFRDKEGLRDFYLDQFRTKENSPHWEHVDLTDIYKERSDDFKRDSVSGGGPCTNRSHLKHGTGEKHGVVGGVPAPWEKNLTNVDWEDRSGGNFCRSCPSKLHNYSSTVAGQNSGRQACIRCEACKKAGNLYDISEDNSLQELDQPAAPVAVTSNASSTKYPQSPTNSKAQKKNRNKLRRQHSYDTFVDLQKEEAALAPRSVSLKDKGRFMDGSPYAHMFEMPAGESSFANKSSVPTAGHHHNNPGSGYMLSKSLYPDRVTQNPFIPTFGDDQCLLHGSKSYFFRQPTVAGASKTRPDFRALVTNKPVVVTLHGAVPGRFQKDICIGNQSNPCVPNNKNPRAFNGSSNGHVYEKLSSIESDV
Protocol: Single point mutations were incorporated into template DNA (GluN1-1b wt/ pSGEM and GluN2B wt/ pSGEM) by using the QuikChange II XL site-directed mutagenesis kit (Agilent Technologies, Germany). Mutagenesis primers were designed using the QuikChange Primer Design Program (Agilent) and provided by Microsynth (Microsynth AG, Balgach, Switzerland). For mutation of the desired amino acid in the gene, PCR amplification was performed with the respective mutagenesis primers (Eppendorf MasterCycler Gradient, Eppendorf Hamburg, Germany). Mutations were verified by automated DNA sequencing. Constructs were linearized with PacI (GluN1) or NheI (GluN2B). cRNA was prepared byin vitrotranscription using the mMessage mMachine T7 kit (Life Technologies, Darmstadt, Germany).
The NMDAR was expressed in stage V and VI oocytes originated from X. laevis. Oocytes were provided by Ecocyte Bioscience (Dortmund, Germany), and equimolar amounts of wild-type and mutated GluN1 and GluN2B cRNA were injected (0.8 ng each). The oocytes were incubated in Barth’s solution, containing (mmol l^−1): 88 NaCl, 1 KCl, 0.4 CaCl2, 0.33 Ca(NO3)2, 0.6 MgSO4, 5 TRIS–HCl, 2.4 NaHCO3, supplemented with 80 mg l^−1 theophylline, 63 mg l^−1 benzylpenicillin, 40 mg l^−1 streptomycin, and 100 mg l^−1 gentamycin and maintained at 18 °C until usage. After injection, the oocytes were incubated for 5 days at 18 °C. Subsequently, the activity of the expressed NMDARs in the oocytes was recorded by two-electrode voltage clamp (TEVC).
The compounds were retrieved as 10 mM stock solutions in DMSO and were subsequently diluted with agonist solution and adjusted to 0.1% DMSO concentration. Inhibition of each compound was measured via TEVC in X. laevis oocytes at room temperature using a Turbo Tec 10CX amplifier (NPI electronic, Tamm, Germany), NI USB 6221 DA/AD Interface (National Instruments, Austin, USA), and GePulse Software (Dr. Michael Pusch, Genova, Italy). Ba^2+-Ringer, consisting of 10 mM HEPES, 90 mM NaCl, 1 mM KCl, and 1.5 mM BaCl2, adjusted to pH 7.4, was used for TEVC measurements. Agonist solution containing 10 µM glycine and 10 µM (S)-glutamate was prepared in Ba^2+-Ringer, and the measurements were performed at a holding potential of − 70 mV, using electrodes with a glass capillary filled with 3 M KCl and a resistance between 0.5 and 1.5 MΩ. The compounds were tested by applying ascending concentrations, ranging from 1 to 30,000 nM, in at least six oocytes. Example traces for all recorded conditions can be found in Supplementary Figs. S2–S9.
TEVC data were analyzed using Ana (Dr. Michael Pusch, Genova, Italy), and statistics were performed using OriginPro 2020 (OriginLab Corporation, Northampton, USA). The inhibitory effect of each compound is calculated using the following equation: inhibition=1-Ic-Ih/Ia-Ih where Ih describes the current in the absence of agonists; Ia represents the steady-state current in the presence of the agonists; and Ic is defined as the steady-state after binding of agonist and compound. All dose response curves are fitted to the following logistic equation: y=A1-A2/1+x/x0^p+A2 where A1 describes the minimal inhibition of a compound and was set to 0; A2 represents the maximal inhibition of a compound; p is the slope of the curve; x0 is defined as the concentration at half-maximal inhibition; and x is the tested concentration. Data were statistically analyzed by one-way ANOVA and Tukey post-hoc mean comparison test in OriginPro 2020 (OriginLab Corporation, Northampton, USA). p values are indicated by * for p < 0.05, ** for p < 0.01, and *** for p < 0.001.

[4] = compound concentration 0.1 μM, 0.1 µM
[5] = compound concentration 1 μM, 1 µM
[6] = compound concentration 10 μM, 10 µM
[7] = compound concentration 30 μM, 30 µM

With `Oc1ccc2c(c1)CCN(CCCCc1ccccc1F)C[C@@H]2O` [OF-NB1 R] the “inhibition (%)” value ([1]; compound concentration 0.001 μM, 0.001 µM) was -0.06931% and 0.4355% and 0% and -3.658% and 0.03081%, the “inhibition (%)” value ([1]; compound concentration 0.01 μM, 0.01 µM) was 1.232% and 1.612% and 0.6817% and 0.2175% and 0.2419% and -3.522% and the “inhibition (%)” value [1, 4] was 1.479% and 2.565% and 9.884% and 1.015% and 0.8871% and -7.992%. For the same molecule, the “inhibition (%)” value [1, 5] was 81.3001% and 76.4859% and 76.5385% and 55.6925% and 70% and 59.6044%, the “inhibition (%)” value [1, 6] was 88.7246% and 84.6994% and 80.9695% and 91.5881% and 81.6129% and 73.2864% and the “inhibition (%)” value [1, 7] was 91.528% and 88.3036% and 81.8784% and 96.5917% and 92.7419% and 78.4069%. The “inhibition (%)” value [2, 4] was 2.548% and 6.871%, the “inhibition (%)” value [2, 5] was 11.2209% and the “inhibition (%)” value [2, 6] was 49.4384%. The “inhibition (%)” value [2, 7] was 65.8902%, the “inhibition (%)” value [3, 4] was 0.0678% and 2.627% and 1.87% and 0.6849% and 0.2286% and 0.9658% and 0.03656% and 0.02653% and -0.1669% and 0.1209% and -0.04753% and the “inhibition (%)” value [3, 5] was 14.4407% and 14.4927% and 9.493% and 16.5753% and 15.6571% and 17.5593% and 23.2907% and 22.7381% and 16.1102% and 8.404% and 10.3375%. The “inhibition (%)” value [3, 6] was 28.6102% and 25.9058% and 19.4894% and 26.4384% and 28.2286% and 31.1677% and 39.1225% and 37.2778% and 33.222% and 21.8259% and 23.1701% and the “inhibition (%)” value [3, 7] was 42.0339% and 39.4475% and 34.8795% and 39.3151% and 43.3714% and 47.7612% and 57.3675% and 51.3929% and 49.7496% and 36.8803% and 42.9658%.
